# Experimental data as given in the supplement of paper PMC8728848.
# The list shows a part of the results.
# B1: CaSRK1 (Capsicum annuum) (protein)
# chain: MALCKIFPFAFILLSCSCYLISGQRFDYPTANLSTTWINSVSAPHSIDYTDGSRIRAILLRGTFGPRYACGFYCNGNCESYLFAIFIVQTNSASQITSPAIGFPQVVWSANRNNPVKINSTLQLTAEGDLVLRDADGTLAWSTNTAGKSVAGLSLTDEGNLALFDSKNATVWQSFDHPTDALVPGQKLVPGMKLTASVSRTNWTAGGLFALSAIDNGLVAFVESNPPQKYFEASVGGSNTSGGSNYVKYLNGSLTLFTHSADTTELILISITPASSAQYMKLESNGHLKVYEWTSRGWREVDDLLTGFRGECNYPTVCGRYGICTMGQCSCPTSSSSRTYFRPIDVRRPSLGCSEVTKLTCQNTKKHSPLEVEDVDYFAFKAGISDTDLNTCKRACLEKCSCKAAFFRSGLNSSRTRGDCYLPTEIFSIMNNEKDRTRYDSVAFIKVQV
# Assays:
# Assay in all cases: glycan array binding signal (z-score within array); higher = stronger binding
# Details in all cases: glycan notation: IUPAC condensed, linker removed
# [1] = target: Gal(a1-3)Gal(b1-3)GlcNAc(b1-2)Man
# In short: (§1)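 Glycan array data were curated from 3228 arrays in the Consortium for Functional Glycomics database and kept only where the protein sequence was available. Glycan names were converted to IUPAC-condensed notation, and columns mapping to the same glycan were averaged. The binding signal is a within-array Z-score, averaged across arrays of the same protein sequence at different concentrations or buffers and across linkers. Negative Z-scores can be read as non-binding.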
# [2] = target: Gal(a1-3)Gal(b1-3)GlcNAc(b1-2)Man(a1-3)[Gal(a1-3)Gal(b1-3)GlcNAc(b1-2)Man(a1-6)]Man(b1-4)GlcNAc(b1-4)GlcNAc
# In short: as §1
# [3] = target: Gal(a1-3)Gal(b1-3)GlcNAc(b1-3)GalNAc
# In short: as §1
# [4] = target: Gal(a1-3)Gal(b1-3)GlcNAc(b1-6)GalNAc
# In short: as §1
# [5] = target: Gal(a1-3)Gal(b1-3)[Fuc(a1-4)]GlcNAc(b1-2)Man(a1-3)[Gal(a1-3)Gal(b1-3)[Fuc(a1-4)]GlcNAc(b1-2)Man(a1-6)]Man(b1-4)GlcNAc(b1-4)GlcNAc
# In short: as §1
# Gal(a1-3)Gal(b1-4)Glc = target: Gal(a1-3)Gal(b1-4)Glc
# In short: as §1
# Gal(a1-3)Gal(b1-4)GlcNAc = target: Gal(a1-3)Gal(b1-4)GlcNAc
# In short: as §1
# [6] = target: Gal(a1-3)Gal(b1-4)GlcNAc(b1-2)Man
# In short: as §1
# [7] = target: Gal(a1-3)Gal(b1-4)GlcNAc(b1-2)Man(a1-3)[Gal(a1-3)Gal(b1-4)GlcNAc(b1-2)Man(a1-6)]Man(b1-4)GlcNAc(b1-4)GlcNAc
# In short: as §1
# [8] = target: Gal(a1-3)Gal(b1-4)GlcNAc(b1-3)GalNAc
# In short: as §1
# [9] = target: Gal(a1-3)Gal(b1-4)GlcNAc(b1-6)GalNAc
# In short: as §1
# [10] = target: Gal(a1-3)Gal(b1-4)[Fuc(a1-3)]GlcNAc
# In short: as §1
# [11] = target: Gal(a1-3)Gal(b1-4)[Fuc(a1-3)]GlcNAc(b1-2)Man(a1-3)[Gal(a1-3)Gal(b1-4)[Fuc(a1-3)]GlcNAc(b1-2)Man(a1-6)]Man(b1-4)GlcNAc(b1-4)GlcNAc
# In short: as §1
# Gal(a1-3)GalNAc = target: Gal(a1-3)GalNAc
# In short: as §1
# [12] = target: Gal(a1-3)[Gal(a1-4)]Gal(b1-4)GlcNAc
# In short: as §1
# [13] = target: Gal(a1-4)Gal(b1-3)GlcNAc(b1-2)Man(a1-3)[Gal(a1-4)Gal(b1-3)GlcNAc(b1-2)Man(a1-6)]Man(b1-4)GlcNAc(b1-4)GlcNAc
# In short: as §1
# Gal(a1-4)Gal(b1-4)Glc = target: Gal(a1-4)Gal(b1-4)Glc
# In short: as §1
# Gal(a1-4)Gal(b1-4)GlcNAc = target: Gal(a1-4)Gal(b1-4)GlcNAc
# In short: as §1
# [14] = target: Gal(a1-4)Gal(b1-4)GlcNAc(b1-2)Man(a1-3)[Gal(a1-4)Gal(b1-4)GlcNAc(b1-2)Man(a1-6)]Man(b1-4)GlcNAc(b1-4)GlcNAc
# In short: as §1
# [15] = target: Gal(a1-4)Gal(b1-4)GlcNAc(b1-3)Gal(b1-4)Glc
# In short: as §1
# Gal(a1-4)GlcNAc = target: Gal(a1-4)GlcNAc
# In short: as §1
# Gal(a1-6)Glc = target: Gal(a1-6)Glc
# In short: as §1
# Gal(b1-2)Gal = target: Gal(b1-2)Gal
# In short: as §1
# Gal(b1-3)Gal = target: Gal(b1-3)Gal
# In short: as §1
# Gal(b1-3)Gal(b1-4)GlcNAc = target: Gal(b1-3)Gal(b1-4)GlcNAc
# In short: as §1
# Gal(b1-3)GalNAc = target: Gal(b1-3)GalNAc
# In short: as §1
# [16] = target: Gal(b1-3)GalNAc(a1-3)[Fuc(a1-2)]Gal(b1-4)Glc
# In short: as §1
# [17] = target: Gal(b1-3)GalNAc(a1-3)[Fuc(a1-2)]Gal(b1-4)GlcNAc
# In short: as §1
# Gal(b1-3)GalNAc(b1-3)Gal = target: Gal(b1-3)GalNAc(b1-3)Gal
# In short: as §1
# [18] = target: Gal(b1-3)GalNAc(b1-3)Gal(a1-4)Gal(b1-4)Glc
# In short: as §1
# [19] = target: Gal(b1-3)GalNAc(b1-4)Gal(b1-4)Glc
# In short: as §1
# [20] = target: Gal(b1-3)GalNAc(b1-4)[Neu5Ac(a2-3)]Gal(b1-4)Glc
# In short: as §1
# Gal(b1-3)GlcNAc = target: Gal(b1-3)GlcNAc
# In short: as §1
# [21] = target: Gal(b1-3)GlcNAc(a1-3)Gal(b1-4)GlcNAc
# In short: as §1
# [22] = target: Gal(b1-3)GlcNAc(a1-6)Gal(b1-4)GlcNAc
# In short: as §1
# Gal(b1-3)GlcNAc(b1-2)Man = target: Gal(b1-3)GlcNAc(b1-2)Man
# In short: as §1
# [23] = target: Gal(b1-3)GlcNAc(b1-2)Man(a1-3)[Gal(b1-3)GlcNAc(b1-2)Man(a1-6)]Man(b1-4)GlcNAc(b1-4)GlcNAc
# In short: as §1
# [24] = target: Gal(b1-3)GlcNAc(b1-2)Man(a1-3)[Gal(b1-3)GlcNAc(b1-2)Man(a1-6)]Man(b1-4)GlcNAc(b1-4)[Fuc(a1-6)]GlcNAc
# In short: as §1
binder,measurement,setting,value
B1,glycan array binding signal (z-score),[1],-0.499
same,glycan array binding signal (z-score),[2],-0.213
same,glycan array binding signal (z-score),[3],-0.147
same,glycan array binding signal (z-score),[4],-0.504
same,glycan array binding signal (z-score),[5],-0.357
same,glycan array binding signal (z-score),Gal(a1-3)Gal(b1-4)Glc,-0.473
same,glycan array binding signal (z-score),Gal(a1-3)Gal(b1-4)GlcNAc,-0.454
same,glycan array binding signal (z-score),[6],-0.278
same,glycan array binding signal (z-score),[7],-0.375
same,glycan array binding signal (z-score),[8],-0.081
same,glycan array binding signal (z-score),[9],-0.482
same,glycan array binding signal (z-score),[10],-0.295
same,glycan array binding signal (z-score),[11],1.04
same,glycan array binding signal (z-score),Gal(a1-3)GalNAc,-0.479
same,glycan array binding signal (z-score),[12],-0.496
same,glycan array binding signal (z-score),[13],0.412
same,glycan array binding signal (z-score),Gal(a1-4)Gal(b1-4)Glc,-0.139
same,glycan array binding signal (z-score),Gal(a1-4)Gal(b1-4)GlcNAc,-0.24
same,glycan array binding signal (z-score),[14],0.156
same,glycan array binding signal (z-score),[15],-0.419
same,glycan array binding signal (z-score),Gal(a1-4)GlcNAc,-0.197
same,glycan array binding signal (z-score),Gal(a1-6)Glc,0.287
same,glycan array binding signal (z-score),Gal(b1-2)Gal,1.16
same,glycan array binding signal (z-score),Gal(b1-3)Gal,-0.173
same,glycan array binding signal (z-score),Gal(b1-3)Gal(b1-4)GlcNAc,-0.531
same,glycan array binding signal (z-score),Gal(b1-3)GalNAc,-0.395
same,glycan array binding signal (z-score),[16],0.178
same,glycan array binding signal (z-score),[17],-0.146
same,glycan array binding signal (z-score),Gal(b1-3)GalNAc(b1-3)Gal,-0.283
same,glycan array binding signal (z-score),[18],-0.249
same,glycan array binding signal (z-score),[19],-0.444
same,glycan array binding signal (z-score),[20],0.04
same,glycan array binding signal (z-score),Gal(b1-3)GlcNAc,-0.317
same,glycan array binding signal (z-score),[21],-0.591
same,glycan array binding signal (z-score),[22],-0.301
same,glycan array binding signal (z-score),Gal(b1-3)GlcNAc(b1-2)Man,5.29
same,glycan array binding signal (z-score),[23],-0.553
same,glycan array binding signal (z-score),[24],-0.356
